PubChem BioAssay AID1745845 (National Center for Advancing Translational Sciences (NCATS), 2022)
About 2,600 (0.72%) of roughly 360,000 compounds were called active. Inconclusive means that the source gave no clear call. Such entries were picked first, then a sample of the others. The call rests on the fitted dose curve; in most records, active means well fitted inhibition curve with a large enough effect; inconclusive means small, poorly fitted or top-dose-only effect; inactive means no such curve, though single readings can be large or run the other way. A potency beside an inconclusive call is a rough fit, not a confirmed value.

Assay: Primary qHTS for Inhibitors of ATXN expression; further: nearly all actives have a fitted effect of over 55% in size
Conditions: HEK-293 ATXN2-luciferase reporter, luminescence, 24 h; series mostly up to 57 µM
How it was run: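 ATXN2-luciferase reporter cells (luciferase flanked by upstream and downstream ATXN2 gene portions) were treated 24 h at 37 °C with compounds at up to 57 uM. SteadyGlo luminescence gave expression; GF-AFC fluorescence gave viability.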
Potency means the concentration at half of the fitted maximal effect; tags describe the fitted curve by direction and shape.

Potency, inconclusive:
N/C(=N\OC(=O)c1ccc([N+](=O)[O-])cc1Cl)c1ccccn1 7.08 µM [inhibitor, full curve, poor fit], CC1=C(CC(=O)O)c2cc(F)ccc2C1=Cc1ccc(S(C)=O)cc1 (stereo unspecified) 24.3 µM [inhibitor, partial curve], COc1ccccc1C1CCN(Cc2c(C)[nH]c3ccccc23)CC1 35.5 µM [inhibitor, partial curve, poor fit], CC(C)(C)c1ccc(C2C3=C(CCCC3=O)NC3=C2C(=O)c2ccccc23)cc1 (stereo unspecified) 31.6 µM [inhibitor, single point], CN(CCNC(=O)c1c[nH]c2c1ccc1ccccc12)CCNC(=O)c1c[nH]c2c1ccc1ccccc12 39.8 µM [inhibitor, single point], O=C(NCCc1csc(-c2ccc(F)cc2)n1)c1ccc(Br)o1 35.5 µM [inhibitor, single point], CC(=O)c1c(C)[nH]c(C(=O)Nc2cccc(S(=O)(=O)N(C)c3ccccc3)c2)c1C 25.1 µM [inhibitor, single point], CCN1C(=O)/C(=C2/Sc3ccccc3N2CC)S/C1=N\c1ncn[nH]1 4.23 µM [inhibitor, partial curve, poor fit], COc1ccc(NC(=O)c2cc(-c3cc(Cl)ccc3C)n[nH]2)cc1OC 0.355 µM [inhibitor, partial curve, poor fit], Cc1cc(C[n+]2cc(Br)ccc2N)c2ncccc2c1 39.8 µM [inhibitor, single point], O=C(CSCCc1ccccn1)Nc1ccc(Br)cn1 28.2 µM [inhibitor, partial curve, poor fit], CCCOc1cc(C)c(S(=O)(=O)NCc2cccs2)cc1C 35.5 µM [inhibitor, single point], COc1ccc(-n2c(Cc3cccn3C)nnc2SCC(=O)Nc2ccc(Cl)cc2)cc1 25.1 µM [inhibitor, partial curve, poor fit], CC(=O)NC1=NN(C(C)=O)C(C)(c2cccs2)S1 (stereo unspecified) 0.631 µM [inhibitor, full curve, poor fit], O=C(Nc1cc(Cl)ccc1O)c1cc2n(n1)C(C(F)(F)F)CC(c1ccc3c(c1)OCO3)N2 (stereo unspecified) 15.8 µM [inhibitor, partial curve, poor fit], N#C/C(=C(/O)COC(=O)CCC1CCCCC1)c1nc2ccccc2[nH]1 39.8 µM [inhibitor, single point], Cc1cc(C)c(Cn2c(C(O)c3ccccc3)nc3ccccc32)c(C)c1 (stereo unspecified) 39.8 µM [inhibitor, single point], O=C(CSc1nc2ccccc2n1Cc1ccccc1Cl)NCc1ccccc1 39.8 µM [inhibitor, single point], COc1ccc(-c2nsc3c(N4CCCCC4)ncnc23)cc1 31.6 µM [inhibitor, single point], S=C(NCc1cccs1)Nc1cc(Cl)cc(Cl)c1 25.1 µM [inhibitor, single point], CCOC(=O)C(=Cc1ccc(-n2ccnc2)cc1)C(=O)OCC 31.6 µM [inhibitor, single point], Cc1sc2ncnc(N3CCC(C(=O)N(C)CC(=O)Nc4ccc(Cl)c(C(F)(F)F)c4)CC3)c2c1C 39.8 µM [inhibitor, single point], COc1ccc(CC(N)c2csc(NC(=O)NCCc3ccccc3)n2)cc1 (stereo unspecified) 35.5 µM [inhibitor, single point], O=[N+]([O-])c1ccc(Sc2nnnn2-c2ccccc2)nc1 39.8 µM [inhibitor, single point], CC(=O)c1ccc(N2CCN(C(=S)Nc3ccccc3C(F)(F)F)CC2)cc1 42.3 µM [inhibitor, partial curve, poor fit], O=C(Nc1nc(-c2ccc(F)c(F)c2)cs1)c1ccc(OCC2CCCO2)cc1 (stereo unspecified) 17.8 µM [inhibitor, partial curve, poor fit], O=C(Cc1csc(-c2ccc(Cl)cc2)n1)Nc1cccc(S(=O)(=O)NC2=NCCC2)c1 39.8 µM [inhibitor, single point], S=C(NCCCCN(Cc1ccc(Cl)cc1)c1ccc(Br)cn1)NCCCc1cnc[nH]1 1.58 µM [inhibitor, full curve, poor fit]

Potency, inactive:
O=c1nc2ccccc2c2n1CC(CN1CCN(C(c3ccccc3)c3ccccc3)CC1)N2 (stereo unspecified), C=Cc1ccc(CSc2cc(C)nc3nc(C)nn23)cc1, C[C@]12c3[nH]c4ccccc4c3CCN1C(=O)C(CC(=O)NCC13CC4CC(CC(C4)C1)C3)C[C@@H]2C(=O)N1CCOCC1 (stereo partly specified), Cn1cnc2c(=O)oc3ccc(S(=O)(=O)N4CCN(c5cccc(Cl)c5)CC4)cc3c21, C(=N/Nc1nc(-c2ccccc2)cc(-c2ccccc2)n1)/c1cccnc1, Cc1cccc(C)c1NC(=O)Cn1nc(C)c2sc3ccccc3c2c1=O, Cc1cc(C)c2cc(CN(Cc3ccco3)C(=O)NCc3ccccc3)c(=O)[nH]c2c1, CC(C)C[C@H](NC(=O)Nc1ccc(Oc2ccccc2)cc1)C(=O)O, COc1ccccc1C(CC(=O)Nc1nccs1)c1ccco1 (stereo unspecified), CN1CCC(N(C)C(=S)NC(=O)c2cc(-c3cccc(Br)c3)nc3ccccc23)CC1

Potency, active:
C[C@@]12O[C@@H](C[C@]1(O)CO)n1c3ccccc3c3c4c(c5c6ccccc6n2c5c31)CNC4=O 3.06 µM, O=C(Nc1ccccc1)c1cc(C2CCCN(C(=O)C3CC3)C2)on1 (stereo unspecified) 10 µM, COc1ccccc1-c1ncn(Cc2cccc(-c3ccccc3)c2)c1CC(C)C 11.2 µM
